Patent US20260013501A1, “HERBICIDAL DERIVATIVES” (SYNGENTA CROP PROTECTION AG, priority 2022, published 2026)
The name of at least one read-out is uncertain.

What was measured:
Format in all cases: in vivo
[1] = system: Amaranthus retoflexus (AMARE); assay: Pre-emergence Test (Table B1), AMARE; details: evaluated after 13 days
[2] = system: Ipomoea hederacea (IPOHE); assay: Post-emergence Test (Table B2), IPOHE; parameters: key: five-point scale: 5=81-100%, 4=61-80%, 3=41-60%, 2=21-40%, 1=0-20% damage; details: rate 1000 g/Ha, evaluated after 13 days
Outline: (§1)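 Evaluation 13 days post-spray gives percent plant damage, reported in five 20% bands (1=0-20% up to 5=81-100%). Test species, sown in soil and kept at 24/16 °C day/night with 14 h light, are treated with compound in 50:50 acetone/water plus 0.5% Tween 20, applied per g/ha.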

[3] = system: Echinochloa crus-galli (ECHCG); assay: Post-emergence Test (Table B2), ECHCG; parameters: key: 5-point damage scale: 5=81-100%, 4=61-80%, 3=41-60%, 2=21-40%, 1=0-20%; details: rate 1000 g/Ha, evaluated after 13 days
Outline: as §1

[4] = system: Echinochloa crus-galli (ECHCG); assay: Pre-emergence Test (Table B1), ECHCG; details: Rate 1000 g/Ha, evaluated after 13 days
[5] = system: Amaranthus retoflexus (AMARE); assay: Post-emergence Test (Table B2), AMARE; parameters: key: five-point scale: 5=81-100%, 4=61-80%, 3=41-60%, 2=21-40%, 1=0-20% damage; details: rate 1000 g/Ha, evaluated after 13 days
Outline: as §1

[6] = system: Amaranthus palmeri (AMAPA); assay: Post-emergence Test (Table B2), AMAPA; parameters: key: five-point scale: 5=81-100%, 4=61-80%, 3=41-60%, 2=21-40%, 1=0-20% damage; details: rate 1000 g/Ha, evaluated after 13 days
Outline: as §1

Zea mays (ZEAMX) [7] = assay: Pre-emergence Test (Table B1), ZEAMX; details: evaluated after 13 days
[8] = system: Amaranthus palmeri (AMAPA); assay: Pre-emergence Test (Table B1), AMAPA; details: evaluated after 13 days
[9] = system: Ipomoea hederacea (IPOHE); assay: Pre-emergence Test (Table B1), IPOHE; details: evaluated after 13 days
Zea mays (ZEAMX) [10] = assay: Post-emergence Test (Table B2), ZEAMX; parameters: key: 5-point damage scale: 5=81-100%, 4=61-80%, 3=41-60%, 2=21-40%, 1=0-20%; details: rate 1000 g/Ha, evaluated after 13 days
Outline: as §1

Setaria faberi (SETFA) = assay: Pre-emergence Test (Table B1), SETFA; details: Rate 250 g/Ha, evaluated after 13 days

Structure (SMILES)	Pre-emergence Test, percentage damage caused to the plant (five-point scale), AMARE ([1]; Rate 1000 g/Ha)	percentage damage caused to the plant, IPOHE [2]	percentage damage caused to the plant, ECHCG [3]	Pre-emergence Test, percentage damage caused to the plant (five-point scale), ECHCG [4]	percentage damage caused to the plant, AMARE [5]	percentage damage caused to the plant, AMAPA [6]	Pre-emergence Test, percentage damage caused to the plant (five-point scale), ZEAMX (Zea mays (ZEAMX) [7]; Rate 1000 g/Ha)	Pre-emergence Test, percentage damage caused to the plant (five-point scale), AMAPA ([8]; Rate 1000 g/Ha)	Pre-emergence Test, percentage damage caused to the plant (five-point scale), IPOHE ([9]; Rate 1000 g/Ha)	percentage damage caused to the plant, ZEAMX (Zea mays (ZEAMX) [10])	Pre-emergence Test, percentage damage caused to the plant (five-point scale), AMARE ([1]; Rate 250 g/Ha)	Pre-emergence Test, percentage damage caused to the plant (five-point scale), SETFA (Setaria faberi (SETFA))	Pre-emergence Test, percentage damage caused to the plant (five-point scale), ZEAMX (Zea mays (ZEAMX) [7]; Rate 250 g/Ha)	Pre-emergence Test, percentage damage caused to the plant (five-point scale), AMAPA ([8]; Rate 250 g/Ha)	Pre-emergence Test, percentage damage caused to the plant (five-point scale), IPOHE ([9]; Rate 250 g/Ha)
CCn1c(Cc2ccc(Cl)c(F)n2)cc(=O)c(C(=O)O)c1-c1ccc(Cl)c(Cl)c1 [Compound 55, 6-[(5-chloro-6-fluoro-2-pyridyl)methyl]-2-(3,4-dichlorophenyl)-1-ethyl-4-oxo-pyridine-3-carboxylic acid]	2 (2=21-40%)	3 (3=41-60%)	4 (4=61-80%)	5 (5=81-100%)	4 (4=61-80%)	3 (3=41-60%)	1 (1=0-20%)	2 (2=21-40%)	2 (2=21-40%)	2 (2=21-40%)	–	–	–	–	–
CCn1c(Cc2cccc(C#N)n2)cc(=O)c(C(=O)O)c1-c1ccc(Cl)c(Cl)c1 [Compound 57, 6-[(6-cyano-2-pyridyl)methyl]-2-(3,4-dichlorophenyl)-1-ethyl-4-oxo-pyridine-3-carboxylic acid]	1 (1=0-20%)	1 (1=0-20%)	4 (4=61-80%)	4 (4=61-80%)	1 (1=0-20%)	1 (1=0-20%)	1 (1=0-20%)	1 (1=0-20%)	3 (3=41-60%)	–	–	–	–	–	–
CCn1c(Cc2cccc(C(F)F)n2)cc(=O)c(C(=O)O)c1-c1ccc(Cl)c(Cl)c1 [Compound 59, 2-(3,4-dichlorophenyl)-6-[[6-(difluoromethyl)-2-pyridyl]methyl]-1-ethyl-4-oxo-pyridine-3-carboxylic acid]	2 (2=21-40%)	3 (3=41-60%)	4 (4=61-80%)	5 (5=81-100%)	3 (3=41-60%)	3 (3=41-60%)	3 (3=41-60%)	2 (2=21-40%)	4 (4=61-80%)	3 (3=41-60%)	–	–	–	–	–
CCn1c(Cc2cccc(=O)[nH]2)cc(=O)c(C(=O)O)c1-c1ccc(Cl)c(Cl)c1 [Compound 61, 2-(3,4-dichlorophenyl)-1-ethyl-4-oxo-6-[(6-oxo-1H-pyridin-2-yl)methyl]pyridine-3-carboxylic acid]	2 (2=21-40%)	4 (4=61-80%)	4 (4=61-80%)	4 (4=61-80%)	4 (4=61-80%)	3 (3=41-60%)	1 (1=0-20%)	1 (1=0-20%)	2 (2=21-40%)	3 (3=41-60%)	–	–	–	–	–
CCn1c(Cc2cc(C#N)ccn2)cc(=O)c(C(=O)O)c1-c1ccc(Cl)c(Cl)c1 [Compound 111, 6-[(4-cyano-2-pyridyl)methyl]-2-(3,4-dichlorophenyl)-1-ethyl-4-oxo-pyridine-3-carboxylic acid]	–	–	–	–	–	–	–	–	–	–	1 (1=0-20%)	1 (1=0-20%)	1 (1=0-20%)	1 (1=0-20%)	1 (1=0-20%)
